Results as given in the supplement of paper PMC8728848.
Some of the results follow.

Columns and labels:
Assay in all cases: glycan array binding signal (z-score within array); higher = stronger binding
Settings in all cases: glycan notation: IUPAC condensed, linker removed
[1] = biological target: Neu5Ac(a2-3)Gal(b1-3)GlcNAc6S
Summary of the method: (§1)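 From the Consortium for Functional Glycomics database, 3228 arrays were curated, keeping only those whose protein sequence was available. Binding is given as a within-array Z-score averaged across arrays sharing a protein sequence and across linkers. Negative Z-scores can be read as non-binding.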

[2] = biological target: Neu5Ac(a2-3)Gal(b1-3)[Fuc(a1-4)]GlcNAc
Summary of the method: as §1

[3] = biological target: Neu5Ac(a2-3)Gal(b1-3)[Fuc(a1-4)]GlcNAc(b1-3)Gal(b1-3)[Fuc(a1-4)]GlcNAc
Summary of the method: as §1

[4] = biological target: Neu5Ac(a2-3)Gal(b1-3)[Fuc(a1-4)]GlcNAc(b1-3)Gal(b1-4)[Fuc(a1-3)]GlcNAc
Summary of the method: as §1

[5] = biological target: Neu5Ac(a2-3)Gal(b1-3)[GlcNAc(b1-6)]GalNAc
Summary of the method: as §1

[6] = biological target: Neu5Ac(a2-3)Gal(b1-3)[Neu5Ac(a2-6)]GalNAc
Summary of the method: as §1

[7] = biological target: Neu5Ac(a2-3)Gal(b1-3)[Neu5Ac(a2-6)]GlcNAc(b1-3)[Fuc(a1-3)[Gal(b1-4)]GlcNAc(b1-6)]Gal(b1-4)Glc
Summary of the method: as §1

[8] = biological target: Neu5Ac(a2-3)Gal(b1-3)]Neu5Ac(a2-3)Gal(b1-4)]GlcNAc
Summary of the method: as §1

Neu5Ac(a2-3)Gal(b1-4)Glc = biological target: Neu5Ac(a2-3)Gal(b1-4)Glc
Summary of the method: as §1

[9] = biological target: Neu5Ac(a2-3)Gal(b1-4)GlcNAc
Summary of the method: as §1

[10] = biological target: Neu5Ac(a2-3)Gal(b1-4)GlcNAc(b1-2)Man
Summary of the method: as §1

[11] = biological target: Neu5Ac(a2-3)Gal(b1-4)GlcNAc(b1-2)Man(a1-3)[GlcNAc(b1-4)][Neu5Ac(a2-3)Gal(b1-4)GlcNAc(b1-2)Man(a1-6)]Man(b1-4)GlcNAc(b1-4)GlcNAc
Summary of the method: as §1

[12] = biological target: Neu5Ac(a2-3)Gal(b1-4)GlcNAc(b1-2)Man(a1-3)[Neu5Ac(a2-3)Gal(b1-4)GlcNAc(b1-2)Man(a1-6)]Man(b1-4)GlcNAc(b1-4)GlcNAc
Summary of the method: as §1

[13] = biological target: Neu5Ac(a2-3)Gal(b1-4)GlcNAc(b1-2)Man(a1-3)[Neu5Ac(a2-3)Gal(b1-4)GlcNAc(b1-2)Man(a1-6)]Man(b1-4)GlcNAc(b1-4)[Fuc(a1-6)]GlcNAc
Summary of the method: as §1

[14] = biological target: Neu5Ac(a2-3)Gal(b1-4)GlcNAc(b1-2)Man(a1-3)[Neu5Ac(a2-6)Gal(b1-4)GlcNAc(b1-2)Man(a1-6)]Man(b1-4)GlcNAc(b1-4)GlcNAc
Summary of the method: as §1

[15] = biological target: Neu5Ac(a2-3)Gal(b1-4)GlcNAc(b1-2)[Neu5Ac(a2-3)Gal(b1-4)GlcNAc(b1-4)]Man(a1-3)[GlcNAc(b1-4)][Neu5Ac(a2-3)Gal(b1-4)GlcNAc(b1-2)[Neu5Ac(a2-3)Gal(b1-4)GlcNAc(b1-6)]Man(a1-6)]Man(b1-4)GlcNAc(b1-4)GlcNAc
Summary of the method: as §1

[16] = biological target: Neu5Ac(a2-3)Gal(b1-4)GlcNAc(b1-2)[Neu5Ac(a2-3)Gal(b1-4)GlcNAc(b1-4)]Man(a1-3)[GlcNAc(b1-4)][Neu5Ac(a2-3)Gal(b1-4)GlcNAc(b1-4)Man(a1-6)]Man(b1-4)GlcNAc(b1-4)GlcNAc
Summary of the method: as §1

[17] = biological target: Neu5Ac(a2-3)Gal(b1-4)GlcNAc(b1-2)[Neu5Ac(a2-3)Gal(b1-4)GlcNAc(b1-6)]Man(a1-6)[Neu5Ac(a2-3)Gal(b1-4)GlcNAc(b1-2)Man(a1-3)]Man(b1-4)GlcNAc(b1-4)GlcNAc
Summary of the method: as §1

[18] = biological target: Neu5Ac(a2-3)Gal(b1-4)GlcNAc(b1-2)[Neu5Ac(a2-3)Gal(b1-4)GlcNAc(b1-6)]Man(a1-6)[Neu5Ac(a2-3)Gal(b1-4)GlcNAc(b1-2)Man(a1-3)][GlcNAc(b1-4)]Man(b1-4)GlcNAc(b1-4)GlcNAc
Summary of the method: as §1

[19] = biological target: Neu5Ac(a2-3)Gal(b1-4)GlcNAc(b1-3)Gal
Summary of the method: as §1

[20] = biological target: Neu5Ac(a2-3)Gal(b1-4)GlcNAc(b1-3)Gal(b1-3)GlcNAc
Summary of the method: as §1

[21] = biological target: Neu5Ac(a2-3)Gal(b1-4)GlcNAc(b1-3)Gal(b1-4)GlcNAc
Summary of the method: as §1

[22] = biological target: Neu5Ac(a2-3)Gal(b1-4)GlcNAc(b1-3)Gal(b1-4)GlcNAc(b1-2)Man(a1-3)[Neu5Ac(a2-3)Gal(b1-4)GlcNAc(b1-3)Gal(b1-4)GlcNAc(b1-2)Man(a1-6)]Man(b1-4)GlcNAc(b1-4)GlcNAc
Summary of the method: as §1

[23] = biological target: Neu5Ac(a2-3)Gal(b1-4)GlcNAc(b1-3)Gal(b1-4)GlcNAc(b1-3)Gal(b1-4)GlcNAc
Summary of the method: as §1

[24] = biological target: Neu5Ac(a2-3)Gal(b1-4)GlcNAc(b1-3)Gal(b1-4)GlcNAc(b1-3)Gal(b1-4)GlcNAc(b1-2)Man(a1-3)[Neu5Ac(a2-3)Gal(b1-4)GlcNAc(b1-3)Gal(b1-4)GlcNAc(b1-3)Gal(b1-4)GlcNAc(b1-2)Man(a1-6)]GalNAc
Summary of the method: as §1

[25] = biological target: Neu5Ac(a2-3)Gal(b1-4)GlcNAc(b1-3)Gal(b1-4)GlcNAc(b1-3)GalNAc
Summary of the method: as §1

[26] = biological target: Neu5Ac(a2-3)Gal(b1-4)GlcNAc(b1-3)Gal(b1-4)GlcNAc(b1-3)[Neu5Ac(a2-3)Gal(b1-4)GlcNAc(b1-3)Gal(b1-4)GlcNAc(b1-6)]GalNAc
Summary of the method: as §1

[27] = biological target: Neu5Ac(a2-3)Gal(b1-4)GlcNAc(b1-3)Gal(b1-4)GlcNAc(b1-6)[Gal(b1-3)]GalNAc
Summary of the method: as §1

[28] = biological target: Neu5Ac(a2-3)Gal(b1-4)GlcNAc(b1-3)Gal(b1-4)[Fuc(a1-3)]GlcNAc
Summary of the method: as §1

[29] = biological target: Neu5Ac(a2-3)Gal(b1-4)GlcNAc(b1-3)GalNAc
Summary of the method: as §1

B1: VLRB.aGPA.23-GCN4-biotin (Petromyzon marinus) (protein)
chain: ACPSQCSCSGTEVNCAGKSLASVPAGIPTTTRVLYLNSNQITKLEPGVFDRLANLRELHLWGNQLVSLPPGVFDNLANLEKLWLNSNQLTSLPAGLFDRLVNLEHLGLCCMKLTELPSGAFDKLTRLKQLGLDQNQLKSIPDGAFARLPSLTHVWLHTNPWDCQCTDILYLSGWVAQHSSIVGEGWPWRHSPDSAKCSGTNTPVRAVTEASTSPSKCP
glycan array binding signal (z-score) [1]: -0.058 | glycan array binding signal (z-score) [2]: -0.085 | glycan array binding signal (z-score) [3]: -0.079 | glycan array binding signal (z-score) [4]: -0.077 | glycan array binding signal (z-score) [5]: -0.083 | glycan array binding signal (z-score) [6]: -0.081 | glycan array binding signal (z-score) [7]: -0.085 | glycan array binding signal (z-score) [8]: -0.074 | glycan array binding signal (z-score) (Neu5Ac(a2-3)Gal(b1-4)Glc): -0.057 | glycan array binding signal (z-score) [9]: -0.085 | glycan array binding signal (z-score) [10]: -0.068 | glycan array binding signal (z-score) [11]: -0.087 | glycan array binding signal (z-score) [12]: -0.084 | glycan array binding signal (z-score) [13]: -0.074 | glycan array binding signal (z-score) [14]: -0.086 | glycan array binding signal (z-score) [15]: -0.08 | glycan array binding signal (z-score) [16]: -0.086 | glycan array binding signal (z-score) [17]: -0.076 | glycan array binding signal (z-score) [18]: -0.089 | glycan array binding signal (z-score) [19]: -0.086 | glycan array binding signal (z-score) [20]: -0.082 | glycan array binding signal (z-score) [21]: -0.075 | glycan array binding signal (z-score) [22]: -0.005 | glycan array binding signal (z-score) [23]: -0.075 | glycan array binding signal (z-score) [24]: -0.006 | glycan array binding signal (z-score) [25]: -0.081 | glycan array binding signal (z-score) [26]: -0.072 | glycan array binding signal (z-score) [27]: -0.067 | glycan array binding signal (z-score) [28]: -0.084 | glycan array binding signal (z-score) [29]: -0.079
